The other results are listed elsewhere or left out.
Columns and labels:
Assay in all cases: glycan array binding signal (z-score within array); higher = stronger binding
Details in all cases: glycan notation: IUPAC condensed, linker removed
[1] = biological target: GlcNAc(b1-3)Gal(b1-4)Glc
Summary of the method: (§1)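 The binding signal is a Z-score computed within each array and averaged over linkers. Arrays of the same protein sequence at different concentrations or buffers were also averaged together. Data originate from 3228 arrays in the Consortium for Functional Glycomics database, kept only where the protein sequence was available.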

[2] = biological target: GlcNAc(b1-3)Gal(b1-4)GlcNAc
Summary of the method: as §1

[3] = biological target: GlcNAc(b1-3)Gal(b1-4)GlcNAc(b1-2)Man(a1-3)[GlcNAc(b1-3)Gal(b1-4)GlcNAc(b1-2)Man(a1-6)]Man(b1-4)GlcNAc(b1-4)GlcNAc
Summary of the method: as §1

[4] = biological target: GlcNAc(b1-3)Gal(b1-4)GlcNAc(b1-2)Man(a1-3)[GlcNAc(b1-3)Gal(b1-4)GlcNAc(b1-2)Man(a1-6)]Man(b1-4)GlcNAc(b1-4)[Fuc(a1-6)]GlcNAc
Summary of the method: as §1

[5] = biological target: GlcNAc(b1-3)Gal(b1-4)GlcNAc(b1-2)[GlcNAc(b1-3)Gal(b1-4)GlcNAc(b1-6)]Man(a1-6)[GlcNAc(b1-3)Gal(b1-4)GlcNAc(b1-2)Man(a1-3)]Man(b1-4)GlcNAc(b1-4)GlcNAc
Summary of the method: as §1

[6] = biological target: GlcNAc(b1-3)Gal(b1-4)GlcNAc(b1-3)Gal(b1-4)GlcNAc
Summary of the method: as §1

[7] = biological target: GlcNAc(b1-3)Gal(b1-4)GlcNAc(b1-3)Gal(b1-4)GlcNAc(b1-2)Man(a1-3)[GlcNAc(b1-3)Gal(b1-4)GlcNAc(b1-3)Gal(b1-4)GlcNAc(b1-2)Man(a1-6)]Man(b1-4)GlcNAc(b1-4)GlcNAc
Summary of the method: as §1

[8] = biological target: GlcNAc(b1-3)Gal(b1-4)GlcNAc(b1-3)Gal(b1-4)GlcNAc(b1-2)Man(a1-3)[GlcNAc(b1-3)Gal(b1-4)GlcNAc(b1-3)Gal(b1-4)GlcNAc(b1-2)Man(a1-6)]Man(b1-4)GlcNAc(b1-4)[Fuc(a1-6)]GlcNAc
Summary of the method: as §1

[9] = biological target: GlcNAc(b1-3)Gal(b1-4)GlcNAc(b1-3)Gal(b1-4)GlcNAc(b1-2)[GlcNAc(b1-3)Gal(b1-4)GlcNAc(b1-3)Gal(b1-4)GlcNAc(b1-6)]Man(a1-6)[GlcNAc(b1-3)Gal(b1-4)GlcNAc(b1-3)Gal(b1-4)GlcNAc(b1-2)Man(a1-3)]Man(b1-4)GlcNAc(b1-4)[Fuc(a1-6)]GlcNAc
Summary of the method: as §1

[10] = biological target: GlcNAc(b1-3)Gal(b1-4)GlcNAc(b1-3)Gal(b1-4)GlcNAc(b1-3)Gal(b1-4)GlcNAc(b1-2)Man(a1-3)[GlcNAc(b1-3)Gal(b1-4)GlcNAc(b1-3)Gal(b1-4)GlcNAc(b1-3)Gal(b1-4)GlcNAc(b1-2)Man(a1-6)]Man(b1-4)GlcNAc(b1-4)GlcNAc
Summary of the method: as §1

[11] = biological target: GlcNAc(b1-3)Gal(b1-4)GlcNAc(b1-3)Gal(b1-4)GlcNAc(b1-3)Gal(b1-4)GlcNAc(b1-2)Man(a1-3)[GlcNAc(b1-3)Gal(b1-4)GlcNAc(b1-3)Gal(b1-4)GlcNAc(b1-3)Gal(b1-4)GlcNAc(b1-2)Man(a1-6)]Man(b1-4)GlcNAc(b1-4)[Fuc(a1-6)]GlcNAc
Summary of the method: as §1

[12] = biological target: GlcNAc(b1-3)Gal(b1-4)GlcNAc(b1-3)Gal(b1-4)GlcNAc(b1-3)Gal(b1-4)GlcNAc(b1-2)[GlcNAc(b1-3)Gal(b1-4)GlcNAc(b1-3)Gal(b1-4)GlcNAc(b1-3)Gal(b1-4)GlcNAc(b1-6)]Man(a1-6)[GlcNAc(b1-3)Gal(b1-4)GlcNAc(b1-3)Gal(b1-4)GlcNAc(b1-3)Gal(b1-4)GlcNAc(b1-2)Man(a1-3)]Man(b1-4)GlcNAc(b1-4)[Fuc(a1-6)]GlcNAc
Summary of the method: as §1

[13] = biological target: GlcNAc(b1-3)Gal(b1-4)GlcNAc(b1-3)Gal(b1-4)GlcNAc(b1-3)Gal(b1-4)GlcNAc(b1-3)Gal(b1-4)GlcNAc(b1-2)Man(a1-3)[GlcNAc(b1-3)Gal(b1-4)GlcNAc(b1-3)Gal(b1-4)GlcNAc(b1-3)Gal(b1-4)GlcNAc(b1-3)Gal(b1-4)GlcNAc(b1-2)Man(a1-6)]Man(b1-4)GlcNAc(b1-4)GlcNAc
Summary of the method: as §1

[14] = biological target: GlcNAc(b1-3)Gal(b1-4)GlcNAc(b1-3)Gal(b1-4)GlcNAc(b1-3)Gal(b1-4)GlcNAc(b1-3)Gal(b1-4)GlcNAc(b1-2)Man(a1-3)[GlcNAc(b1-3)Gal(b1-4)GlcNAc(b1-3)Gal(b1-4)GlcNAc(b1-3)Gal(b1-4)GlcNAc(b1-3)Gal(b1-4)GlcNAc(b1-2)Man(a1-6)]Man(b1-4)GlcNAc(b1-4)[Fuc(a1-6)]GlcNAc
Summary of the method: as §1

[15] = biological target: GlcNAc(b1-3)Gal(b1-4)GlcNAc(b1-3)Gal(b1-4)GlcNAc(b1-3)Gal(b1-4)GlcNAc(b1-3)Gal(b1-4)GlcNAc(b1-2)[GlcNAc(b1-3)Gal(b1-4)GlcNAc(b1-3)Gal(b1-4)GlcNAc(b1-3)Gal(b1-4)GlcNAc(b1-3)Gal(b1-4)GlcNAc(b1-6)]Man(a1-6)[GlcNAc(b1-3)Gal(b1-4)GlcNAc(b1-3)Gal(b1-4)GlcNAc(b1-3)Gal(b1-4)GlcNAc(b1-3)Gal(b1-4)GlcNAc(b1-2)Man(a1-3)]Man(b1-4)GlcNAc(b1-4)[Fuc(a1-6)]GlcNAc
Summary of the method: as §1

[16] = biological target: GlcNAc(b1-3)Gal(b1-4)GlcNAc(b1-3)Gal(b1-4)GlcNAc(b1-3)GalNAc
Summary of the method: as §1

[17] = biological target: GlcNAc(b1-3)Gal(b1-4)GlcNAc(b1-3)GalNAc
Summary of the method: as §1

[18] = biological target: GlcNAc(b1-3)Gal(b1-4)GlcNAc(b1-3)[GlcNAc(b1-3)Gal(b1-4)GlcNAc(b1-3)]GalNAc
Summary of the method: as §1

[19] = biological target: GlcNAc(b1-3)Gal(b1-4)GlcNAc(b1-6)[Gal(b1-3)]GalNAc
Summary of the method: as §1

[20] = biological target: GlcNAc(b1-3)Gal(b1-4)GlcNAc(b1-6)[GlcNAc(b1-3)Gal(b1-3)]GalNAc
Summary of the method: as §1

[21] = biological target: GlcNAc(b1-3)Gal(b1-4)GlcNAc(b1-6)[GlcNAc(b1-3)]Gal(b1-4)GlcNAc
Summary of the method: as §1

[22] = biological target: GlcNAc(b1-3)GalNAc
Summary of the method: as §1

[23] = biological target: GlcNAc(b1-3)Man
Summary of the method: as §1

[24] = biological target: GlcNAc(b1-3)[GlcNAc(b1-4)][GlcNAc(b1-6)]GlcNAc
Summary of the method: as §1

[25] = biological target: GlcNAc(b1-3)[GlcNAc(b1-6)]Gal(b1-4)GlcNAc
Summary of the method: as §1

[26] = biological target: GlcNAc(b1-3)[GlcNAc(b1-6)]GalNAc
Summary of the method: as §1

[27] = biological target: GlcNAc(b1-4)Gal(b1-4)GlcNAc
Summary of the method: as §1

[28] = biological target: GlcNAc(b1-4)GlcNAc
Summary of the method: as §1

[29] = biological target: GlcNAc(b1-4)GlcNAc(b1-4)GlcNAc
Summary of the method: as §1

[30] = biological target: GlcNAc(b1-4)GlcNAc(b1-4)GlcNAc(b1-4)GlcNAc(b1-4)GlcNAc
Summary of the method: as §1

[31] = biological target: GlcNAc(b1-4)GlcNAc(b1-4)GlcNAc(b1-4)GlcNAc(b1-4)GlcNAc(b1-4)GlcNAc
Summary of the method: as §1

[32] = biological target: GlcNAc(b1-4)[GlcNAc(b1-6)]GalNAc
Summary of the method: as §1

[33] = biological target: GlcNAc(b1-6)Gal(b1-4)GlcNAc
Summary of the method: as §1

[34] = biological target: GlcNAc(b1-6)GalNAc
Summary of the method: as §1

[35] = biological target: GlcNAc6S(b1-3)Gal(b1-4)GlcNAc
Summary of the method: as §1

[36] = biological target: Kdn(a2-3)Gal(b1-3)GalNAc
Summary of the method: as §1

[37] = biological target: Kdn(a2-3)Gal(b1-3)GlcNAc
Summary of the method: as §1

B1: GS14009A-pdi-495-27-495 (Parabacteroides distasonis) (protein)
chain: FEEVNTDPDSPTDVPTTNLLAYSLYYTSYRLYDRWFAMDEPMTFCGYASKMTYIDESRYNFRTGVQDTNWEYLYRILNNLKDIEKRATFNETPNMLNVSKVMQVHLMQVATDRWRDVPYTDAAKMTDGILQPKYDKQEDIYPGLLATLKEAADGFADGGSDDLGEGDLLFGGDIEKWQRYCNSMRLRLAMRISEVSPALAKETVEEVMGNPTKYPIMESNDDNAFFWWIGTDPNYYEPMADGYRTRKTEYCAADVIVDHMNTREDPRRSSYFQPTKESVEAGEPKYVGYTIGAKANAVASKYSIWGARFFTDLAGFSPYMRVAEPWFCVAEASMLGWNTGISAEDAYNKAVTYSMEENSVSAEDIADYLANAGKFTNDKKQIYYEEWVAMFKQGMEGWSLYRRTGVPDNLYPAPGRPANYSNHNVPPFRSPYPDKERNLNNANCAPFDAEVVDNLWGKQMWWDTRTGVH
glycan array binding signal (z-score) [1]: -0.222 | glycan array binding signal (z-score) [2]: -0.094 | glycan array binding signal (z-score) [3]: 0.166 | glycan array binding signal (z-score) [4]: 0.393 | glycan array binding signal (z-score) [5]: 0.313 | glycan array binding signal (z-score) [6]: -0.252 | glycan array binding signal (z-score) [7]: 0.834 | glycan array binding signal (z-score) [8]: -0.494 | glycan array binding signal (z-score) [9]: 2.44 | glycan array binding signal (z-score) [10]: 0.141 | glycan array binding signal (z-score) [11]: 0.061 | glycan array binding signal (z-score) [12]: 0.442 | glycan array binding signal (z-score) [13]: 0.141 | glycan array binding signal (z-score) [14]: 0.509 | glycan array binding signal (z-score) [15]: 0.104 | glycan array binding signal (z-score) [16]: 0.219 | glycan array binding signal (z-score) [17]: -0.312 | glycan array binding signal (z-score) [18]: 0.309 | glycan array binding signal (z-score) [19]: 0.324 | glycan array binding signal (z-score) [20]: 0.415 | glycan array binding signal (z-score) [21]: -0.022 | glycan array binding signal (z-score) [22]: -0.78 | glycan array binding signal (z-score) [23]: 0.188 | glycan array binding signal (z-score) [24]: -0.31 | glycan array binding signal (z-score) [25]: 0.016 | glycan array binding signal (z-score) [26]: -0.513 | glycan array binding signal (z-score) [27]: -0.581 | glycan array binding signal (z-score) [28]: -0.5 | glycan array binding signal (z-score) [29]: -0.116 | glycan array binding signal (z-score) [30]: -0.453 | glycan array binding signal (z-score) [31]: -0.478 | glycan array binding signal (z-score) [32]: 0.089 | glycan array binding signal (z-score) [33]: 0.277 | glycan array binding signal (z-score) [34]: 0.174 | glycan array binding signal (z-score) [35]: 0.785 | glycan array binding signal (z-score) [36]: -0.451 | glycan array binding signal (z-score) [37]: -0.115
